In all, about 33,000 sequences were measured (“E-score (-0.5 to 0.5)”: median about -0.053, highest 2% from about 0.37 on). This is one part of the list.
These sequences were tested against Hap1 (UniProt P0CE41) (assay: PBM E-score (8-mer binding enrichment) (E-score (-0.5 to 0.5)); higher = stronger / more preferred TF binding; most listed sequences are background and not binding sites). Conditions: protein concentration: 200 nM; construct: GST-DNA-binding domain.
How it was run: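 Detection of bound protein used fluorescent anti-GST, with scans normalised by masliner. The proteins were GST-tagged yeast transcription factors applied at about 100-200 nM to universal all-10-mer Agilent arrays made double-stranded by primer extension. Each ungapped eight-base word, pooled with its reverse complement, was scored with an E-score from the Universal PBM Analysis Suite.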

Chain of UniProt P0CE41 (P0CE41 whole entry, the tested form may be a part): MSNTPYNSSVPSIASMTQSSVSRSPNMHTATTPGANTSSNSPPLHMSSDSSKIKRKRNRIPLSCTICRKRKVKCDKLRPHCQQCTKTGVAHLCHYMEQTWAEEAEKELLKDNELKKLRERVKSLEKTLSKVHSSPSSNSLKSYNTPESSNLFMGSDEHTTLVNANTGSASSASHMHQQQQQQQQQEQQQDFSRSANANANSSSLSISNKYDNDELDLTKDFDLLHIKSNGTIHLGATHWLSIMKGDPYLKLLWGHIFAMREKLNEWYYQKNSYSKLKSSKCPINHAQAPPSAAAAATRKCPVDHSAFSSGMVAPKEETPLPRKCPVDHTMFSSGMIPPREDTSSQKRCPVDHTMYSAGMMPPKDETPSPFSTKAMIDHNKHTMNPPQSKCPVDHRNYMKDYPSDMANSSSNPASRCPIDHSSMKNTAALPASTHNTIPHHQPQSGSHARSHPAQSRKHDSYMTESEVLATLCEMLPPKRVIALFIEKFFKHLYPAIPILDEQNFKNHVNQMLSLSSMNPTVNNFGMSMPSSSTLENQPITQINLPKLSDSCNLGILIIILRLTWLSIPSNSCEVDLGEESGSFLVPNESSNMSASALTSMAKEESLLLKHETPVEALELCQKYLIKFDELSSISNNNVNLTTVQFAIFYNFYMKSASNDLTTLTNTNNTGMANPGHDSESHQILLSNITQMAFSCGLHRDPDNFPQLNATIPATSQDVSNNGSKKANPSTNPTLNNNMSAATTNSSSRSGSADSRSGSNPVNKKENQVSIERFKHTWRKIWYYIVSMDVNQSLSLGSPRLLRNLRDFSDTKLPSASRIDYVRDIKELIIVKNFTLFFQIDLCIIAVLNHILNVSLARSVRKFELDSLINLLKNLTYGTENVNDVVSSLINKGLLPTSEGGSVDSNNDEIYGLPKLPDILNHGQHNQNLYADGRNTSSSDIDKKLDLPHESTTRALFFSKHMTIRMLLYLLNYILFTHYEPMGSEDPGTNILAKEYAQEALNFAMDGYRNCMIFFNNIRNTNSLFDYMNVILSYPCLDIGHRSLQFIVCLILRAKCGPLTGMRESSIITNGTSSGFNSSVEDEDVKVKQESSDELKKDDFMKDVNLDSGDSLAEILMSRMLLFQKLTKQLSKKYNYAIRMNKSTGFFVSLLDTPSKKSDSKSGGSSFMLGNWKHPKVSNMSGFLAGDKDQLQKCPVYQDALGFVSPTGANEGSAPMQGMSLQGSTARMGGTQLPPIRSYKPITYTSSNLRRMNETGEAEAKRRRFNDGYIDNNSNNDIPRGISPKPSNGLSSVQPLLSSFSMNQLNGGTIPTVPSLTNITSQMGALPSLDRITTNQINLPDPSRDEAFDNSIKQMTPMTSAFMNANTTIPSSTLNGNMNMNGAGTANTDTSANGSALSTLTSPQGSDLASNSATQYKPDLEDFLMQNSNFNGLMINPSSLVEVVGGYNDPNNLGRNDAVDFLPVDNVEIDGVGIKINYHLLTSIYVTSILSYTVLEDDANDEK

Row | Sequence | PBM E-score
1 | AATGACTG | -0.28
2 | ACGTTCCA | -0.0379
3 | ACGCAATC | 0.0706
4 | CCTGGACG | -0.139
5 | AACTAGGT | 0.16
6 | GTAACTAC | -0.0248
7 | AAATCTCT | -0.0274
8 | CGACAGAC | -0.0306
9 | CGGAGGCA | 0.209
10 | CGAAGCCA | -0.133
11 | AGGTACAA | -0.266
12 | ATTCCGAC | 0.307
13 | GCGCCTTA | -0.105
14 | AACCACAA | -0.0525
15 | GACCCCGC | 0.134
16 | ACTATTTG | 0.00158
17 | AGTGGACG | 0.0359
18 | AACCTGTA | -0.192
19 | CTTGGCTA | -0.361
20 | CCACCCTC | 0.0653
21 | CCCAGGAA | -0.174
22 | ATGCCGAA | 0.346
23 | ACGTTGCA | -0.207
24 | GAAGACGA | -0.025
25 | ATTCGAAT | -0.2

Row | Sequence | PBM E-score
26 | CACTTTTA | -0.098
27 | AATCCGGA | 0.433
28 | AATGCGTG | -0.165
29 | CGCCTCAA | -0.0947
30 | CGTGTGTA | -0.0443
31 | AACGCGAA | 0.121
32 | GTCGAGTA | -0.115
33 | GTTAGACA | 0.0281
34 | ACGCCGCC | 0.256
35 | AGTGAGTA | -0.131
36 | GCGCGCAC | 0.187
37 | CGGTGACG | 0.0359
38 | CTCATCTC | 0.0439
39 | ATAACTAT | -0.131
40 | GGCATGAC | -0.201
41 | TACTAATA | 0.0975
42 | AAGGTCTA | -0.0867
43 | AATCGCAT | 0.128
44 | TATTTGAA | -0.0491
45 | CCAACACA | -0.094
46 | ATTGAAGC | 0.0958
47 | ACTCATAC | -0.0998
48 | CTTAGACA | -0.282
49 | CTAGTAGC | -0.108
50 | CCAGCGGC | 0.0619

Row | Sequence | PBM E-score
51 | CCTTAGCG | -0.0884
52 | GCCCAGAA | -0.0212
53 | GCCTTGAC | -0.13
54 | AAAAAGGT | -0.187
55 | AAGTAACA | -0.178
56 | CCGCTGAA | -0.00989
57 | CCTGCTCA | -0.15
58 | ACTACGAG | -0.0984
59 | GCGGCGAA | 0.229
60 | TAGTAGAA | 0.0227
61 | ATTGTAGA | -0.148
62 | GGGCTTAA | 0.296
63 | AGTTATTC | -0.0219
64 | ATACAGTG | -0.27
65 | ACTTGGTA | -0.215
66 | CTGGGGAC | -0.345
67 | GGGGTACC | -0.00107
68 | AGGGTAGG | -0.161
69 | AGTGGTTA | -0.171
70 | CCATACGC | -0.125
71 | AAGCCTTA | -0.0914
72 | AAAGACTG | -0.272
73 | GTCGTGCA | -0.209
74 | ACGGAGCA | 0.271
75 | ACTTTACT | -0.162

Row | Sequence | PBM E-score
76 | CAACTGGC | -0.145
77 | CCTCCACC | -0.0838
78 | GAGATCGA | 0.0587
79 | GCTGACCC | -0.0201
80 | ACGATCAA | -0.167
81 | TGCGCGAA | 0.0575
82 | TCCATCGA | -0.0782
83 | GGTAGAGA | -0.026
84 | AAATCGCG | 0.103
85 | CAATACCA | -0.091
86 | TCTACTAA | -0.198
87 | CATATGCG | 0.031
88 | AACCTCAA | -0.103
89 | GGCTCTTA | 0.169
90 | ATTTACCG | 0.376
91 | GTCCGGTA | 0.419
92 | CGTATTTC | 0.176
93 | ATGGATCC | 0.153
94 | GATTCGAC | -0.148
95 | ATGGGGTA | 0.0604
96 | TCGGAAGA | 0.199
97 | GTACCAAA | -0.0856
98 | GGGTTGTA | 0.0474
99 | CGAGGACG | 0.15
100 | CGTGTCGC | 0.258

Row | Sequence | PBM E-score
101 | ACAGTCAG | -0.274
102 | CACCAACC | -0.00494
103 | ACAATTAA | -0.00929
104 | CACACTGG | -0.156
105 | AGAAGCGA | -0.00823
106 | CAATCAGA | -0.209
107 | AAGATGAG | -0.313
108 | GAGCTAGC | -0.127
109 | CTCGCTAC | -0.108
110 | CCAAGGGG | -0.24
111 | GATAGTGA | -0.0353
112 | GAGCCATA | -0.127
113 | AAACCATA | -0.069
114 | AAGAGCAC | -0.227
115 | CCACGCGA | -0.0313
116 | AATAACGT | 0.0765
117 | CGGGAGTC | 0.0637
118 | CGTTAACA | 0.00755
119 | ATAACAGG | -0.159
120 | AACACTTA | 0.00555
121 | CATGGATA | -0.122
122 | GCGAAAAC | -0.0632
123 | CGAGTTGC | -0.053
124 | ATCGACCG | 0.265
125 | GCCTCACA | -0.263

Row | Sequence | PBM E-score
126 | CGAAATCA | 0.167
127 | CGAGAAGA | 0.0377
128 | ATCGCGAA | 0.216
129 | CTGGGCGA | -0.0308
130 | AAGGCGAT | -0.0941
131 | TCAGTGGA | -0.0926
132 | CCAGCCGG | 0.275
133 | ACAAACGA | -0.145
134 | AGTGATAG | -0.308
135 | TGCACGAA | -0.299
136 | TCAAAAAA | 0.0121
137 | ACTGTTAT | -0.041
138 | AAGTAACT | 0.0725
139 | ATCTGCAT | -0.0399
140 | CAGAAGTA | -0.272
141 | CTCGGCTC | 0.226
142 | CATGGGGC | -0.155
143 | GCAGCCAA | -0.178
144 | ATGAGTGA | -0.187
145 | TCAACCCA | -0.0841
146 | AGGTAAGC | -0.215
147 | ATGTGAAG | -0.192
148 | AATTGAAA | -0.293
149 | TGTAGTAA | 0.0446
150 | CATCATTC | -0.00448

Row | Sequence | PBM E-score
151 | GATAATCA | -0.00414
152 | CACTGAGG | -0.0951
153 | CCAGAATC | -0.12
154 | GCTCTAAC | 0.0397
155 | ATTCTGAC | -0.0753
156 | CCACCCCG | 0.2
157 | CCTCAAAC | 0.00338
158 | GAAGAGGA | -0.136
159 | ACTCTTCT | -0.193
160 | AGGTCCGA | 0.404
161 | CTAGCTCC | 0.196
162 | ATTCTAAG | -0.0213
163 | AATGTCTC | -0.0165
164 | AACAATGA | -0.0687
165 | CCCTCCCC | 0.12
166 | AGAGTAAT | 0.076
167 | TCATTGCA | -0.247
168 | TCTCAACA | -0.232
169 | GAACTCGC | -0.0187
170 | CCCGCGCC | 0.189
171 | AATTAGCG | 0.206
172 | AGAACGTA | -0.108

Reference: the supplement of paper PMC3334620
